Measured values: the supplement of paper PMC3334620
Over roughly 33,000 sequences, “E-score (-0.5 to 0.5)” has its median near -0.036; the highest 2% begin near 0.37. The list shows a part of the results.

target: T1, Yer064c (UniProt P40041); assay: PBM E-score (8-mer binding enrichment) (E-score (-0.5 to 0.5)); higher = stronger / more preferred TF binding; most listed sequences are background and not binding sites; details: protein concentration: 200 nM; construct: GST-full length
T1 sequence: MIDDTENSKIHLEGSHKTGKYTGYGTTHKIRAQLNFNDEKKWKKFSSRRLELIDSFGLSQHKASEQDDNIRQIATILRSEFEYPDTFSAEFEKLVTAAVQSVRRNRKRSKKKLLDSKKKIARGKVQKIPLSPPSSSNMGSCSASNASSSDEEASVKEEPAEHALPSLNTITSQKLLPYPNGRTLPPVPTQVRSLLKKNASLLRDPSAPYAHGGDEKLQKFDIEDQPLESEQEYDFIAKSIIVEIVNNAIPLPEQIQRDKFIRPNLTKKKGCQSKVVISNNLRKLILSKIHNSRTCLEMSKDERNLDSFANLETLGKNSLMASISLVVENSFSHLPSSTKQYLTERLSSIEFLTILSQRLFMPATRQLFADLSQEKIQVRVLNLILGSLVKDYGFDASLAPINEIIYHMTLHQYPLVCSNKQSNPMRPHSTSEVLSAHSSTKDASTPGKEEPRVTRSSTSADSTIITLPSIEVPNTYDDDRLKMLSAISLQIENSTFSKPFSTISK
Outline: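 Full-length yeast transcription factors or their DNA-binding domains, GST-tagged and expressed with PURExpress, were applied at about 100-200 nM to universal all-10-mer Agilent arrays. These arrays had been made double-stranded by primer extension on fresh or once-stripped slides. Detection used fluorescent anti-GST, normalisation used masliner, and E-scores for ungapped eight-base words pooled with reverse complements came from the Universal PBM Analysis Suite.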

Sequence | PBM E-score
ATAGACTG | 0.119
AGCAGGAA | -0.0489
AAGGATCT | -0.163
CCGGAACG | -0.109
CTGTGATA | 0.126
ATCCGAAT | 0.0995
AGGCTGGG | -0.276
ACCTCTAA | -0.0252
CGATATTC | -0.241
AATACATG | -0.0609
TGTATTAA | 0.188
ACGACCAG | -0.0471
CTGTGGTC | -0.159
AGCATTAA | 0.0916
AAACCCCA | -0.136
ACGCGCGC | -0.058
CTATCAGA | 0.0093
GAGTCAAA | 0.461
AGCTAAGA | 0.169
GCCGACCC | -0.245
ACTGTTGC | -0.0887
ACGTCATC | -0.276
CATTCTCG | -0.0917
CCATGGGC | 0.127
CACATAAA | 0.0766

Sequence | PBM E-score
ATTGATAC | 0.137
CAACACTC | -0.122
GGTGTGAC | 0.213
GCCGTGTA | -0.178
TAGTCAGA | 0.457
CGCCCATA | -0.143
GTCGAGAC | 0.166
TTGCCCAA | -0.165
CGAGCGAA | -0.137
CGTCGTAG | 0.0225
CTGAACTA | 0.05
AGTCCGTG | 0.0556
CCTTGACC | -0.0498
GGCGAGAA | -0.0732
GAGGGTCC | -0.28
AACTCATG | 0.256
CGTATGTA | 0.0155
TACTCACA | 0.367
ACGGCACG | -0.0992
AATTGCAG | -0.128
ACCCAGCC | -0.0554
CATGATCC | 0.0741
GCGCCGAA | -0.0818
TAGTTAAA | 0.149
GGCGGTCA | -0.212

Sequence | PBM E-score
AAAGCCGA | -0.14
CCTACCTA | 0.00081
CCGTGGGA | -0.161
CAGAGCCC | -0.214
TGAATTCA | 0.194
AGATGTTA | -0.241
AAAAAGTT | -0.00095
GGACATCA | -0.157
AGATATGA | 0.281
CAGATACG | -0.232
AAACGCCT | -0.294
GATCGTGA | 0.255
CCACGTCA | -0.181
CGCTCAGC | -0.0668
CGAGTGAA | -0.037
CGTCTGCA | -0.0909
GAAATGTA | -0.238
ATCTAGAC | 0.116
CTCGAAGA | 0.182
CATCTCAA | 0.0358
GACTTCCA | 0.341
GTCTGAGA | 0.0446
AAATCTCA | 0.0869
TGACCGCA | -0.0804
CAGAATAC | -0.014

Sequence | PBM E-score
CCCCGCAC | -0.193
AATGTAAC | 0.0173
GGAGAGGA | -0.0819
AGCAAATC | 0.105
GAGGGTTA | -0.0846
TAAATGTA | 0.0886
CCAATCCG | -0.0952
AGGGTCAC | -0.266
ACGGAACA | -0.0123
CAAGCTTC | -0.201
ACCGGCTG | -0.104
CTTACTGC | 0.0595
GTTATCAA | 0.041
CATACCCC | 0.0692
ACCGCGAA | -0.0355
GCGACGTA | -0.135
CCAATAAC | 0.032
GCCCCTCA | -0.259
GGTCATAC | 0.123
AACGTGAA | 0.00711
CTTATGGA | -0.0524
ATCAGCGA | 0.0822
ATCGATCG | -0.0738
ATGATGGA | 0.0706
AATAGCTC | -0.109

Sequence | PBM E-score
CGACACGC | 0.0272
CAGGCTGG | -0.284
CTAATCCC | -0.231
AAGCACAC | -0.201
CTATCGGA | -0.0498
ATCCCGGC | -0.168
AAAGCGCG | -0.121
AAGTCTGC | -0.106
GCAATATA | -0.0194
CTAGACCC | -0.196
ATTTCCGA | 0.0799
TGTTTCAA | 0.159
AACAAAGA | 0.0853
AAACAGCA | -0.0503
CTGTGCGA | -0.133
CTGGAGTA | 0.0648
CGTGAGTC | 0.48
CGCCCATC | -0.148
GCTACGGA | -0.0699
CAACACGC | -0.0402
AGACTTCG | 0.125
ACCCCCAA | -0.147
ACGCCTAA | 0.0472
AGTTCTGC | -0.203
AAACCTCC | -0.265

Sequence | PBM E-score
ACTAATAA | 0.302
CGCGTACG | 0.0918
ACTCCGAT | 0.127
ATGGGCTC | 0.131
CGATCTAG | 0.0702
AGACCTTG | -0.0519
AACTTCGC | -0.167
CTGCGCCA | -0.102
ATAATGAC | 0.257
TGTCCGAA | 0.0441
AGGTTGAG | 0.109
AACCTCTA | -0.316
CTGTTTTC | -0.0359
ACAGGAGC | -0.159
CCAGCAGG | -0.207
GTGCGGTA | -0.151
AGTAGAGC | -0.187
AGCTCAAT | 0.0257
CTTACTCA | 0.373
AACTGGAG | -0.144
AACGTATC | -0.183
CCGGTACC | -0.324
ATAGAAAC | 0.0311
AGGTCTGC | -0.172
AAGAGCTT | -0.105

Sequence | PBM E-score
GTAACGGA | -0.0515
GTAAGGAC | 0.0623
ACAGGACG | -0.26
GTTTAAAC | 0.159
AATACTAC | 0.0915
ACGCTATC | -0.329
AGTAGACG | -0.06
GAAGTGTA | -0.0675
CCTCCGTC | -0.348
ATACTATC | -0.134
GCGTGCCA | -0.318
GATTCCAA | 0.156
CCCAGGAC | -0.182
CGTGTAAG | 0.173
TATGACCA | 0.168
GCTCGTCA | 0.00153
GGCTAACC | 0.149
GAAGAAAC | -0.0572
CTAATGTA | -0.0853
AAACTAAA | 0.0515
ACAGCTAC | -0.106
TAACCACA | 0.169
